Test results from PubChem BioAssay AID686979 (National Center for Advancing Translational Sciences (NCATS), 2013).
Several values for one entry are separate records, joined by “and”; a condition that tells them apart may be missing. Equal entries are not always repeated. Out of some 420,000 compounds screened, about 50,000 (12%) were called active. Inconclusive results, whose numbers are uncertain, are shown with a selection of clear calls. The call rests on the fitted dose curve; in most records, active means well fitted inhibition curve with a large enough effect; inconclusive means small, poorly fitted or top-dose-only effect; inactive means flat fitted curve, though single readings scatter. A potency beside an inconclusive call is a rough fit, not a confirmed value.

Test: qHTS for Inhibitors of human tyrosyl-DNA phosphodiesterase 1 (TDP1): qHTS in cells in presence of CPT; further: nearly all actives have a fitted effect of over 55% in size
Conditions: chicken DT40 Tdp1-/-;hTDP1 cells + 20 nM CPT, ATP luminescence, 48 h; activity change, negative = growth inhibition: at 46.2 µM (top of the series)
Summary of the method: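 Cell growth measured by CellTiter-Glo luminescence after a minimum 48 h, 37 C compound exposure with 20 nM CPT in Tdp1-knockout DT40 cells stably expressing hTDP1, seeded 400/well; qHTS titration format.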
On the % scale 0 is the no-effect control and ±100 the full control effect; potency means the concentration at half of the fitted maximal effect; tags describe the fitted curve by direction and shape.

Row | SMILES | Potency | activity change, negative = growth inhibition
1 | CCOc1ccc(CCN2C(=O)C(=O)N([C@@H](Cc3ccccc3)CN3CCC[C@H]3CN3C(=O)C(=O)NC[C@@H]3Cc3ccc(O)cc3)C[C@@H]2Cc2ccc(O)cc2)cc1 | inconclusive: 29.1 µM [inhibitor, single point] | –
2 | COc1ccc(-c2c(N)cnc(C(=O)O)c2C)c(OCc2ccccc2)c1OC | inconclusive: 18.4 µM [inhibitor, partial curve] | –
3 | CC1(C)C(=O)CCC2(C)C1=CCC1C2C(=O)CC2(C)C1CCC2(O)C(=O)CO (centres undefined) | inconclusive: 25.9 µM [inhibitor, single point] | –
4 | C=CCN(c1ccc(C(=O)Nc2cccc([N+](=O)[O-])c2)cc1)S(C)(=O)=O | inactive | –
5 | Cc1ccc2occ(CC(=O)N(Cc3ccc(Cl)cc3)C3CCS(=O)(=O)C3)c2c1 (centres undefined) | inconclusive: 16.4 µM [inhibitor, single point] | –
6 | COc1ccc(NC(=O)CN(C)C(=O)c2cccc3ccccc23)cc1 | inactive | –
7 | Cn1cc(C2=C(c3ccc(Cl)cc3Cl)C(=O)NC2=O)c2ccccc21 | inconclusive: 29.1 µM [inhibitor, single point] and inconclusive: 15.8 µM [inhibitor, single point] | –
8 | CCn1c(O)c(N=NC(=S)NCC2CCCO2)c2ccccc21 (centres undefined) | active: 13 µM | –
9 | COc1cc(CCN=Cc2cc(Cl)cc(Cl)c2O)c([N+](=O)[O-])cc1OC | inconclusive: 14.6 µM [inhibitor, partial curve, poor fit] | –
10 | Cc1c(CC(=O)N2CCN(C(=O)C3COc4ccccc4O3)CC2)c(=O)oc2cc(O)ccc12 (centres undefined) | inactive | –
11 | Cc1ccc(C)c(NC(=O)CSc2nnc(C3CCCCC3)o2)c1 | inactive | –
12 | CCOC(=O)N1CCN(C(=O)Cn2c(=O)sc3ccccc32)CC1 | inactive | –
13 | CCCCNCc1cc(OCC)c(OCC)cc1Br | inactive | –
14 | Cc1ccccc1NC(=O)NCCCCc1ccccc1 | – | inconclusive: -38.6% [inhibitor]
15 | COc1ccc(C)cc1NC(=O)C(=O)c1cn(CC(=O)N2CCCC2)c2ccccc12 | inconclusive: 25.9 µM [inhibitor, single point] | –
16 | Cc1ccc(-c2csc(C3C(N)=NC(S)=C(C#N)C34CCCCC4)n2)cc1 (centres undefined) | inconclusive: 18.4 µM [inhibitor, single point] | –
17 | COc1cccc(NC(=O)n2ncc3c(C)cccc32)c1 | inconclusive: 14.6 µM [inhibitor, partial curve, poor fit] | –
18 | Cc1ccc(S(=O)(=O)N2CCC(C(=O)N/N=C/c3cccnc3)CC2)cc1 | inactive | –
19 | Cn1c(SCC(=O)N/N=C/C=C/c2ccco2)nc2ccccc21 | active: 18.4 µM | –
20 | CC1CCN(C(=O)c2ccc(NC(=O)c3ccccc3)cc2)CC1 | inactive | –
21 | CCN(CC)CCn1c(NC(=O)c2ccc(Cl)cc2)nc2ccccc21 | inconclusive: 29.1 µM [inhibitor, single point] | –
22 | CN(Cc1ccco1)c1ncnc2ccc(-c3cccc(NS(C)(=O)=O)c3)cc12 | inconclusive: 25.9 µM [inhibitor, single point] | –
23 | COc1ccc(CCN2C(=O)CC(C(N)=O)SC2=Nc2ccccc2)cc1 (centres undefined) | inactive | –

Row | SMILES | Potency | activity change, negative = growth inhibition
24 | CCC1CCCCN1C(=O)CSc1nc2c([nH]c3ccccc32)c(=O)n1C (centres undefined) | active: 18.4 µM | –
25 | CN(C)C(=O)c1ccc(-c2cc3onc(-c4ccccc4)c3c(=O)n2C)cc1 | inconclusive: 20.6 µM [inhibitor, single point] | –
26 | CC1C(=O)C(C)C(c2ccccc2F)NC1c1ccccc1F (centres undefined) | inactive | –
27 | CCCCNC(=S)NCc1ccc2c(c1)cc(C)n2C | inconclusive: 29.1 µM [inhibitor, single point] | –
28 | COc1ccc2c(c1)CCc1c(C(=O)Nc3c(C)n(C)n(-c4ccccc4)c3=O)noc1-2 | inactive | –
29 | FC(F)(F)c1ccccc1CN1CCN(C2CCCCCC2)CC1 | inconclusive: 20.6 µM [inhibitor, partial curve] | –
30 | Cc1ccc(N2C(=O)/C(=C\c3ccc(C(C)C)cc3)N=C2SC2CCOC2=O)cc1 (centres undefined) | inconclusive: 13 µM [inhibitor, partial curve] | –
31 | Cc1ccc(/C=N/Nc2nncn2N)cc1 | – | inconclusive: -37.9% [inhibitor]
32 | O=[N+]([O-])C(=C1Nc2ccccc2N1)C(Cl)=C(Cl)Cl | inconclusive: 29.1 µM [inhibitor, single point] | –
33 | Cc1ccc(C)c(N(CC(=O)NC2CCCC2)C(=O)c2cc3cc4cccc(C)c4nc3s2)c1 | inconclusive: 29.1 µM [inhibitor, single point] | –
34 | CC(=O)OCC(=O)C12OC(C)(C)OC1CC1C3CC=C4CC(O)CCC4(C)C3CCC12C (centres undefined) | inconclusive: 46.1 µM [inhibitor, single point] | –
35 | Cc1ccc2c(C)c(C(=O)N(Cc3cccs3)C3CCS(=O)(=O)C3)oc2c1 (centres undefined) | inconclusive: 25.9 µM [inhibitor, single point] | –
36 | Cc1ccc(-c2noc(CNS(=O)(=O)c3ccc(F)cc3)n2)cc1 | inconclusive: 29.1 µM [inhibitor, single point] | –
37 | CC(C)(C)OC(=O)N1CCC(C(=O)Nc2ccc3c(c2)CCC3)CC1 | inconclusive: 25.9 µM [inhibitor, single point] | –
38 | O=C(CNC(=S)NC(=O)c1cccs1)c1ccccc1 | active: 16.4 µM | –
39 | CC(C)c1ccc(N(CC(=O)NC2CCCC2)C(=O)CCC(=O)Nc2ccccn2)cc1 | inconclusive: 29.1 µM [inhibitor, single point] | –
40 | CCC(=O)c1ccc(OCC(O)CN2CCN(c3ccc(F)cc3)CC2)cc1 (centres undefined) | inactive | –
41 | Cc1ccc2c(/C=C/c3ccc(N(C)C)cc3)c(C)cnc2c1 | inconclusive: 12.6 µM [inhibitor, single point] | –
42 | Cc1nnc(N2CCN(C(=O)NC(C)C)CC2)c2nn(-c3ccccc3)c(C)c12 | inactive | –
43 | COc1cc2c(C(=O)NCc3ccc(C)o3)cn(CC(C)C)c(=O)c2cc1OC | inactive | –
44 | COc1cc(-c2c(C(C)=O)c(C)nc3c2C(=O)c2ccccc2-3)cc(OC)c1OC | inconclusive: 0.0052 µM [inhibitor, full curve, poor fit] | –
45 | CC(C)(C)c1csc(NC(=O)Cn2cnc3ccccc3c2=O)n1 | inconclusive: 29.1 µM [inhibitor, single point] | –
46 | CC(C)CC1Nc2ncnc(N3CCN(c4ccccc4)CC3)c2N(Cc2ccc(Br)cc2)C1=O (centres undefined) | active: 16.4 µM | –

Row | SMILES | Potency | activity change, negative = growth inhibition
47 | Cc1c(NC(=O)c2cc(-c3ccc(F)cc3)on2)c(=O)n(-c2ccccc2)n1C | inactive | –
48 | O=C(CCNC(=O)c1ccco1)Nc1ccc(OC(F)(F)F)cc1 | inactive | –
49 | CCN(CC)c1ccc(NC(=O)c2cnc3c(-c4ccccc4)c(C)nn3c2C)c(C)c1 | inconclusive: 23.1 µM [inhibitor, single point] | –
50 | Cc1nc(CS(=O)c2ccccc2)cc(N2CCOCC2)n1 (centres undefined) | inactive | –
51 | CCOc1ccccc1NC(=O)C(CC(C)C)NC(=O)C1CCCCC1 (centres undefined) | – | inconclusive: -36.5% [inhibitor]
52 | Cc1cccnc1C(c1ccc(F)cc1)N(C)C(=O)C1CCN(CCCOc2ccc(F)cc2)CC1 (centres undefined) | inconclusive: 29.1 µM [inhibitor, single point] | –
53 | COc1ccc(NC(=O)CN2C(=O)C3(SCC(=O)N3c3ccccc3)c3ccccc32)cc1Cl (centres undefined) | inconclusive: 29.1 µM [inhibitor, single point] | –
54 | CS(=O)(=O)N1CCN(C(=O)c2cc(-c3ccccc3)nc3ccccc23)CC1 | inconclusive: 29.1 µM [inhibitor, single point] | –
55 | COc1ccc(/C=C2\CCc3ccccc3C2=O)cc1OC | – | inconclusive: -32.9% [inhibitor]
56 | Cc1nc(-c2ccccn2)nc(N(C)c2ccccc2)c1Cl | active: 2.59 µM | –
57 | COCCn1c(=O)c(-c2cc(F)cc(F)c2)nc2cnc(Oc3cccc(Cl)c3)nc21 | inconclusive: 29.1 µM [inhibitor, single point] | –
58 | CC1CCCCC1NC(=O)COC(=O)c1c2c(nc3ccccc13)/C(=C\c1ccco1)CC2 (centres undefined) | active: 29.1 µM | –
59 | Cc1ccc(Cn2cc(/C=N/NC(=O)Cc3nnc(NC(=O)c4ccc(C)cc4)s3)c3ccccc32)cc1 | active: 11.6 µM | –
60 | CCOC(=O)C1CCN(Cc2nc3ccc([N+](=O)[O-])cc3c(=O)n2-c2ccc(OC)cc2OC)CC1 | inconclusive: 20.6 µM [inhibitor, single point] | –
61 | COc1ccc(NC(=O)Nc2nnc(-c3ccccc3SCc3ccccc3)s2)cc1 | active: 18.4 µM | –
62 | Cc1c(C(=O)N(Cc2cccc(F)c2)C2CCS(=O)(=O)C2)oc2cc(Br)ccc12 (centres undefined) | inconclusive: 20.6 µM [inhibitor, single point] | –
63 | CCCCn1c(N)c(N(CCOC)C(=O)c2ccc(-c3ccc(Cl)cc3)o2)c(=O)[nH]c1=O | inconclusive: 16.4 µM [inhibitor, single point] | –
64 | O=C(c1ccc(-c2ccc(Cl)cc2)o1)N1CCN(S(=O)(=O)c2cccs2)CC1 | inconclusive: 20.6 µM [inhibitor, single point] | –
65 | COc1cccc2sc(=NC(=O)CS(=O)(=O)c3ccc(Cl)cc3)n(C)c12 | active: 7.31 µM | –
66 | CCc1ccccc1NC(=O)CC(c1ccc(OC)cc1)n1cccc1 (centres undefined) | inconclusive: 18.4 µM [inhibitor, partial curve] | –
67 | CC1(C)Cc2c(c(-c3ccccc3)nc3[nH][nH]c(=O)c23)CO1 | inactive | –
68 | O=C(CN1CCN(c2ccccc2)CC1)c1ccc2cc[nH]c2c1 | inconclusive: 25.9 µM [inhibitor, single point] | –
69 | CC(C)(C)NC(=S)N/N=C/c1c(Cl)cccc1Cl | inactive | –
